The source of these data is the supplement of paper PMC9135407.

The subject of the assay is primary human hepatic stellate cells (donor 1). Briefly: scaled lipid accumulation score (0 = DMSO-like, 1 = nortriptyline-like); higher = stronger HSC inactivation (lipid re-accumulation), active = hit call of the paper. The note with it: 48 h.
[1] abbreviates: library stock concentration: 3.33 mM.
[2] abbreviates: library stock concentration: 10 mM.
Setting [3] is: library stock concentration: 1 mM.

Values joined by “and” are separate entries in the source; they are usually repeats but may differ in a detail not shown here. Equal entries are not always repeated. Structures can show the parent of a compound that is named as a salt. Out of some 5,800 compounds screened, about 620 (11%) showed activity.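 Rule for the calls: active = score above a cut-off or among the top three wells of a plate; in these data no inactive exceeds 0.85.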 The list shows a part of the results, in another mix than the full data. A value given as a limit tells only on which side of the number the result lay.

Regarding `Cl.Cl.NC1(c2ccc(-c3nc4ccn5c(=O)[nH]nc5c4cc3-c3ccccc3)cc2)CCC1`, the “scaled lipid accumulation score” value is, setting by setting: under setting [1], active: 1.35; under setting [2], active: 1.02.

For `Cc1ccc(/C(=C\CN2CCCC2)c2ccccn2)cc1` [trans-Triprolidine hydrochloride], under setting [2], the “scaled lipid accumulation score” value is inactive: 0.207.

For `Cc1ccc(/C(=C\CN2CCCC2)c2ccccn2)cc1` [Triprolidine hydrochloride], the “scaled lipid accumulation score” value was inactive: 0.282. For the same compound, for the setting “library stock concentration: 6.4 mM”, the “scaled lipid accumulation score” value is inactive: 0.123. The “scaled lipid accumulation score” value under setting [2] was inactive: ≤ 0 and inactive: 0.092.

Turning to `CC(C)(O/N=C(\C(=O)N[C@@H]1C(=O)N2C(C(=O)[O-])=C(C[n+]3ccccc3)CS[C@H]12)c1csc(N)n1)C(=O)O` [Ceftazidime pentahydrate], the “scaled lipid accumulation score” value was inactive: 0.085.

For the compound `Cc1c(Cl)cccc1Nc1ncccc1C(=O)O` [Clonixin Lysinate], the “scaled lipid accumulation score” value was inactive: ≤ 0.

In the case of `O=c1onc2n1-c1cc(Br)ccc1OC2`, the “scaled lipid accumulation score” value is, setting by setting: under setting [3], inactive: ≤ 0; under setting [2], inactive: 0.212.

As to `CCOC(=O)NCCCC(=O)NCCc1ccccc1`, the “scaled lipid accumulation score” value was inactive: ≤ -0.009 under setting [1] and inactive: ≤ 0 under setting [2].

In the case of `C[C@H]1O[C@H](O[C@H]2[C@H](O)[C@@H](O)[C@@H](O[C@H]3[C@H](O)[C@@H](O)C(O)O[C@@H]3CO)O[C@@H]2CO)[C@H](O)[C@@H](O)[C@@H]1N[C@H]1C=C(CO)[C@@H](O)[C@H](O)[C@H]1O` (stereo not given in full), the “scaled lipid accumulation score” value under setting [2] was inactive: ≤ 0.

With `C[C@H]1O[C@H](O[C@H]2[C@H](O)[C@@H](O)[C@@H](O[C@H]3[C@H](O)[C@@H](O)C(O)O[C@@H]3CO)O[C@@H]2CO)[C@H](O)[C@@H](O)[C@@H]1N[C@H]1C=C(CO)[C@@H](O)[C@H](O)[C@H]1O` (stereo not given in full) [Acarbose], the “scaled lipid accumulation score” value by setting is: (library stock concentration: 3.1 mM) inactive: ≤ 0; under setting [1], inactive: ≤ 0; under setting [2], inactive: 0.016 and inactive: ≤ -0.001.

Take `CC(C)(C=O)Cc1cc(C(C)(C)C)c(O)c(C(C)(C)C)c1`: under setting [2], the “scaled lipid accumulation score” value is inactive: 0.21 and inactive: ≤ -0.006.

Take `C[C@@H](Oc1ccc2[nH]nc(/C=C/c3cnn(CCO)c3)c2c1)c1c(Cl)cncc1Cl`: the “scaled lipid accumulation score” value was inactive: ≤ 0 (library stock concentration: 80 uM), inactive: ≤ 0 (library stock concentration: 400 uM), inactive: ≤ 0 (library stock concentration: 2 mM) and inactive: 0.209 under setting [2].

Take `CNC1CCCN(c2c(F)cc3c(=O)c(C(=O)O)cn(C4CC4)c3c2OC)C1` (stereo not given) [Balofloxacin]: the “scaled lipid accumulation score” value is inactive: ≤ 0 under setting [1] and inactive: ≤ 0 under setting [2].

Take `NCC(O)C1CCCCCCC1` (stereo not given) [2-Cyclooctyl-2-hydroxyethylamine hydrochloride]: the “scaled lipid accumulation score” value under setting [2] is inactive: 0.647.

Consider `CCCCC[C@H](O)/C=C/[C@@H]1[C@@H](CCCCCCC(=O)O)[C@H](O)C[C@H]1O` [Prostaglandin F1.beta.], for which the “scaled lipid accumulation score” value under setting [3] is inactive: ≤ 0.

On to `CN1CCC(=C2c3ccccc3C=Cc3ccccc32)CC1` [Cyproheptadine], for which the “scaled lipid accumulation score” value (library stock concentration: 7 mM) is inactive: 0.351.

For `CN1CCC(=C2c3ccccc3C=Cc3ccccc32)CC1` [Cyproheptadine HCl], the “scaled lipid accumulation score” value was inactive: 0.629 under setting [1] and inactive: 0.63 under setting [2].

Take `CN1CCC(=C2c3ccccc3C=Cc3ccccc32)CC1`: the “scaled lipid accumulation score” value under setting [2] is active: 1.32.

Take `CN1CCC(=C2c3ccccc3C=Cc3ccccc32)CC1` [Cyproheptadine hydrochloride]: the “scaled lipid accumulation score” value (library stock concentration: 6.2 mM) was inactive: 0.686.
